In all, about 48,000 compounds went through this assay and about 450 (0.94%) were called active. The shares of active, inactive and inconclusive entries below differ from those in the screen. Calls come from the whole dose curve; as a rule, active = well fitted inhibition curve with a large enough effect; inconclusive = small, poorly fitted or top-dose-only effect; inactive = no such curve, though single readings can be large or run the other way. Where the call is inconclusive, the potency comes from a doubtful curve fit.
Test: Primary qHTS for Identification of Small Molecule Inhibitors of Huntingtin Promoter Activity; note: nearly all actives have a fitted effect of over 50% in size
Conditions: HEK293 HTT promoter firefly luciferase reporter (activity 0% = vehicle and -100% = no light), 24 h; series mostly up to 57.5 µM
From the text: Assay Provider: Russell L. Margolis M.D.
Department Neurology, Johns Hopkins University School of Medicine, Baltimore, MD
Huntington's Disease (HD) is a neurodegenerative disorder caused by a CAG repeat expansion in exon 1 of huntingtin (HTT). While there are currently no disease-modifying treatments for HD, recent efforts have focused on development of nucleotide-based therapeutics to lower HTT expression. As an alternative to siRNA or oligonucleotide methods, we hypothesized that suppression of HTT expression might be accomplished by small molecules that either (1) directly decrease HTT expression by suppressing HTT promoter activity or (2) indirectly decrease HTT expression by increasing the promoter activity of HTT-AS, the gene antisense to HTT that appears to inhibit expression of HTT.
We developed and employed a high throughput screen for modifiers of HTT and HTT-AS promoter activity using luminescent reporter HEK293 cells; of the 52,041 compounds tested, we identified 898 replicable hits. We used a rigorous stepwise approach to assess compound toxicity and the capacity of the compounds to specifically lower huntingtin protein in 5 different cell lines, including HEK293 cells, HD lymphoblastoid cells, mouse primary neurons, HD iPSCs differentiated into cortical-like neurons, and HD hESCs. We found no compounds which were able to lower huntingtin without lowering cell viability in all assays, though the potential efficacy of a few compounds at non-toxic doses could not be excluded.
SEQUENCE No. (1, 2, 3, etc.); […] (e.g., Cells, Incubation, Reagent, etc.); VALUE and DESCRIPTION.
1; Reagent; 4 uL; 2,500 Hek293 luciferase reporter cells per wells
3; Compound; 23 nL; Control inhibitor / compound library
5; Reagent; 2.5 uL; Firefly Luc reagent; Dual-Glo Luciferase Reporter Assay System (Promega)
6; Time; 10 min; room temperature incubation
7; Detection; Luminescence; FLuc
NOTES (numbers refer to sequence above)
1; High-throughput screening, measuring luminescence from a Hek293 luciferase reporter, was performed in 1,536 well white-walled tissue-culture treated plates. 2,500 cells were plated in 4 µL of Opti-MEM per well using a Multidrop Combi Reagent Dispenser (ThermoFisher).
2; Assay plates were cultured for 24 hours.
3; Control inhibitor (PTC124; final concentration of 50 uM) and compound library (at final concentrations of 460 nM - 57.5 uM) were added to the assay plate using the Kalypsis Pintool Robotic System equipped with 1536 pinheads.
4; Cells were then incubated for 24 hours at 37 degrees C prior to luminescence measurements.
5; In all cases, luminescence was measured using the Dual-Glo Luciferase Reporter Assay System (Promega) following the manufacturer's instructions.
6; Room temperature incubation.
7; Luminescence signal was obtained using the PerkinElmer ViewLux plate reader. Results were normalized to vehicle control (0% activity) and zero RLU (-100% activity).
Potency is the fitted concentration of half-maximal effect; tags give direction and shape of the fitted curve.

Potency, inactive:
O=C(NC1CCCCC1)c1c[nH]c2ccc(S(=O)(=O)Nc3ccccc3F)cc2c1=O
CC1CCCN(c2cc3c(cc2F)c(=O)c(S(=O)(=O)c2cccc(Cl)c2)cn3C)C1 (configuration not stated)
Cc1ccc(C(=O)Nc2ccc(C(=O)OCc3cc(=O)n4ccsc4n3)cc2)cc1
COc1ccc(-c2nc3ccccc3o2)cc1NC(=O)CSc1ccc(Cl)cc1

Potency, inconclusive:
CCOC(=O)c1ccc(NC(=O)c2c(NCc3sccc3C)sc3c2CCCCC3)cc1 28.2 µM [inhibitor, single point]
COc1ccc(C)cc1NC(=O)C(=O)NCC1(c2ccccc2)CCCC1 25.1 µM [inhibitor, single point]
CC(C)(C)c1ccc(C2NC(=O)c3n[nH]c(-c4cccs4)c32)cc1 (configuration not stated) 22.4 µM [inhibitor, partial curve, poor fit]
COc1ccccc1N1CCN(c2ncnc3c2nc2n3CCCC2)CC1 35.5 µM [inhibitor, partial curve, poor fit]
COc1ccccc1NC(=O)Cn1c(=O)n(CCc2ccccc2)c(=O)c2c3c(sc21)CN(C(C)=O)CC3 14.1 µM [inhibitor, partial curve]
Cc1nnc(SCc2nc(-c3ccc(Cl)cc3)no2)n1-c1ccc(F)cc1 31.6 µM [inhibitor, partial curve, poor fit]
Cc1ccc(Cn2cc(/C=C(/C#N)C(=O)Nc3cccc(Cl)c3)c3ccccc32)cc1 2.82 µM [inhibitor, full curve]
CN(C(=O)c1ccc(F)cc1C(F)(F)F)C1CCN(c2nnc(-c3ccnn3C)c3ccccc23)CC1 19.3 µM [inhibitor, partial curve, poor fit]
COc1ccc(-n2c(/C=C/c3cccc4ccccc34)nc3ccccc3c2=O)cc1Cl 35.5 µM [inhibitor, single point]
Cc1ccc(CNC(=O)c2nc(-c3ccc(Cl)cc3)n3c2CCCCC3)cc1 14.1 µM [inhibitor, partial curve]
Cc1ccc(CN(C(=O)COc2ccc(C(C)C)cc2)C2CCS(=O)(=O)C2)o1 (configuration not stated) 35.5 µM [inhibitor, partial curve, poor fit]
Cc1ccc(S(=O)(=O)c2c(Nc3cc(C)ccc3C)sc(C(=O)c3ccc4c(c3)OCO4)c2N)cc1 2.82 µM [inhibitor, single point]
CCc1ccc(NC(=O)C(NS(=O)(=O)c2cccc3nsnc23)c2ccccc2)cc1 (configuration not stated) 3.98 µM [inhibitor, single point]

Reference: PubChem BioAssay AID1508623 (National Center for Advancing Translational Sciences (NCATS), 2021)
